Results as given in PubChem BioAssay AID493208 (National Center for Advancing Translational Sciences (NCATS), 2011).
The whole screen tested about 44,000 compounds, of which about 340 (0.77%) were called active. About 5% were inconclusive and are not listed. Calls come from the whole dose curve; as a rule, active = well fitted inhibition curve with a large enough effect; inconclusive = small, poorly fitted or top-dose-only effect; inactive = flat fitted curve, though single readings scatter. The list shows a part of the results.

Test: Acumen qHTS Assay for Inhibitors of the mTORC1 Signaling Pathway in MEF (Tsc2-/-, p53-/-) Cells: Sytravon;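 note: plate controls were DMSO for no effect and rapamycin for full effect; nearly all actives have a fitted effect of over 50% in size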
Conditions: phospho-rpS6 immunofluorescence/PI, 24 h; series mostly up to 38.3 µM; activity change, negative = inhibition: at the top concentration
How it was run: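 Tsc2-/-, p53-/- mouse embryonic fibroblasts (empty-vector line) exposed to compound 24 hrs at 37 C, fixed, immunostained for phospho-rpS6 and counterstained with propidium iodide. Acumen laser scanning gives % positive cells from Alexa 488/PI ratio, thresholded using 7.5 nM rapamycin; PI count gives viability.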

Activity change, negative = inhibition, inactive:
CCc1ccc(S(=O)(=O)c2nnn3c2nc(Nc2ccc(F)cc2)c2cc(Cl)ccc23)cc1 0.237%, O=C(O)c1cccc(Nc2ncnc3scc(-c4ccccc4)c23)c1 -1.27%, COc1ccc(NC(=O)c2cc(CN3CCCC3)on2)cc1Cl -8.48%, Cc1ccc(C(=O)Nc2nnc(S(=O)(=O)N3CCc4ccccc43)s2)cc1 6.62%, Cc1ccccc1C(=O)Oc1c(Sc2ccccc2)c(C)nn1C(C)(C)C 2.05%, CCOc1ccc(NC(=O)c2cnc(Nc3ccccc3OC)c3ccccc23)cc1 -16.8%, COc1ccc(CCNC(=O)Cn2ncc3c(=O)oc4ccccc4c32)c(OC)c1 4.58%, COc1ccc(CC(=O)NCc2ccc3c(c2)CCN3C(=O)c2ccc(Cl)cc2)cc1 6.14%, CCc1ccc2oc(-c3cc(NC(=O)c4cccnc4)cc(C)c3O)nc2c1 1.5%, CCOc1ccc(CCNC(=O)CCSCc2ccc(Cl)cc2)cc1OCC 5.32%, CCC(=O)N1CCc2cc(Br)cc(S(=O)(=O)N3CCCC(C(=O)Nc4cccc(F)c4)C3)c21 (stereo not given) -0.0904%, CCOC(=O)CSc1nc2sc3c(c2c(=O)n1-c1ccccc1)CCC(C(C)(C)C)C3 (stereo not given) -0.986%, CC(C)Oc1ccc(CNC(=O)c2cccc(NC(=O)N3CCSc4ncccc43)c2)cc1 -1.3%, O=C(Nc1cccc(Br)c1)N1CCC(CN2CCCCCC2)CC1 -9.18%, COc1cccc(CNC(=O)CN(c2ccc(C(C)C)cc2)S(=O)(=O)c2c(C)noc2C)c1 2.19%, Cc1cc(C)cc(Oc2c(C(F)(F)F)oc3cc(OCC(=O)NC4CCCCC4)ccc3c2=O)c1 -10.6%, CCOC(=O)c1cc(-c2ccccc2)n(-c2cccc(C(=O)Nc3cc(OC)cc(OC)c3)c2)c1C -1.51%, CCOC(=O)c1sc(NC(=O)c2cc3nc(-c4ccccc4)cc(C(F)(F)F)n3n2)c(C(=O)OCC)c1C -1.35%, Cn1c(=O)oc2cc(S(=O)(=O)N3CCC(C(=O)Nc4ccc(F)c(Cl)c4)CC3)ccc21 -16.4%, Cc1ccc(C)c(CSc2nc3ccncc3n2CC(=O)Nc2ccc(N(C)C)cc2)c1 0.729%, Cc1cccc2nc(-c3cccc(NS(=O)(=O)c4ccccc4)c3)cn12 13.3%, CCC(C)NC(=O)CSc1nc2c(sc3ccccc32)c(=O)n1Cc1ccccc1Cl (stereo not given) 0.807%, Clc1ccccc1CNc1ncnc2c1c(-c1ccccc1)cn2-c1ccccc1 9.51%, Cc1cc(C)c(NC(=O)Nc2ccc3snnc3c2)c(C)c1 -0.334%, Cc1ccc(NC(=O)CSc2nc(-c3ccco3)nc3cc(=O)[nH]n23)cc1C 7.38%, Cc1ccc(C)c(Cn2c3ccccc3c3cnn(CC(=O)NCc4ccccc4)c(=O)c32)c1 -14.2%, Fc1ccccc1Cn1c(-c2ccccc2)nc2ccccc21 -25.1%, COCCCNC(=O)CSc1nc2c(sc3ccccc32)c(=O)n1CCCC(=O)NCCOC -18.8%, Cc1ccccc1OCc1nnc(SCc2cc(=O)c3cccc(F)c3[nH]2)n1C -13%, CC(=O)c1ccc(NC(=O)COCc2cc(-c3ccco3)on2)cc1 -3.93%, COc1cccc(N2CC(NC(=O)c3cccc(OC)c3OC)CC2=O)c1 (stereo not given) 0.802%, COc1ccc2c(c1)c1c(c(=O)n(-c3cccc(Cl)c3)c(=O)n1CC(=O)N1CCCC1)n2C -4.62%, Cc1cc(NC(=O)C2CCN(S(=O)(=O)c3ccc4[nH]c(=O)oc4c3)CC2)ccc1Br -0.118%, CCC1CCCCN1CCCNC(=O)CN1C(=O)CSc2ccc(S(=O)(=O)N3CCOCC3)cc21 (stereo not given) 10.7%, CCOC(=O)Cn1nc(C)c(NC(=O)COc2ccc(Cl)cc2C)c1C 0.357%, COc1ccc(/C=C\C(=O)NC2CC(=O)N(c3ccccc3)C2)cc1OC (stereo not given) -1.26%, COc1cc(NC(=O)c2nc(-c3ccncc3)no2)cc(OC)c1OC -21.2%, Cc1ccc(NC(=O)C(Cc2c[nH]c3ccccc23)NC(=O)OCC(C)C)cc1 (stereo not given) 1.15%, Cc1ccc(CN(C(=O)COc2c(C)cccc2C)C2CCS(=O)(=O)C2)o1 (stereo not given) -2.97%, COC(=O)c1nc2n(n1)C(c1cc(OC)ccc1OC)C(C(=O)Nc1ccc(C)cc1C)=C(C)N2 (stereo not given) 2.4%, Cc1ccc(Cl)cc1N1CCN(CCNC(=O)Nc2ccccc2Cl)CC1 -20.3%, CC(C)(C)C(=O)NCCc1csc2nc(-c3ccc(F)cc3)nn12 7.35%, Cc1ccc2oc3c(c(=O)c2c1)C1(C(=O)N(C)c2ccccc21)N(CCCO)C3=O (stereo not given) -5.1%, O=C(CCS(=O)(=O)c1cccc2nsnc12)Nc1ccc(F)cc1 -22.3%, Cc1ccc(Cl)cc1NC(=O)C(=O)NCC(c1cccnc1)N1CCc2ccccc21 (stereo not given) -2.18%, COc1ccc2oc(-c3ccc(C)c(NC(=O)COc4cc(C)cc(C)c4)c3)nc2c1 -3.34%, CSc1cccc(NC(=O)C2CCN(C(=O)c3cnn(-c4ccccc4)c3-n3cccc3)CC2)c1 -8.22%, Cc1ccc(-n2nnc(C(=O)Nc3cc(F)ccc3F)c2C)cc1F 0.357%, COc1ccccc1NC(=O)c1sc2nc3c(cc2c1N)CCCCCC3 -16.9%, O=C(c1ccccc1)N1c2ncnn2C2(CCCCC2)[C@@H]2CCCC[C@@H]21 -0.421%, Cc1ccccc1C(=O)Nc1cc(-c2ccc(Cl)cc2)nn1-c1ccccc1 -8.25%, Cc1ccc2c(c1)C(c1ccc(F)cc1)N(C(=O)c1ccc(OC(C)C)cc1)CC(=O)N2 (stereo not given) -2.65%, Cc1nn(-c2ccc(N3CCOCC3)nn2)c(C)c1CCC(=O)NCc1ccc(F)cc1 3.29%, COc1cc2[nH]c(=O)n(CCCC(=O)N3CCN(c4cccc(C(F)(F)F)c4)CC3)c(=O)c2cc1OC 6.14%, COc1ccc(C(=O)CSc2c(C(C)C)cnc3c2c(=O)n(C)c(=O)n3C)cc1 2.95%, Cc1ccc(NC(=O)C2CCN(c3cc(C)nc4c(-c5ccc(Cl)cc5)c(C)nn34)CC2)c(C)c1 -5.94%, COc1ccccc1N1CCN(C(=O)CN2C(=O)COc3ccc(S(=O)(=O)N4CCC(C)CC4)cc32)CC1 0.622%, Cc1ccn2c(=O)cc(COc3ccc(NC(=O)c4ccccc4F)cc3)nc2c1 -19.6%, CCOc1ccc(NC(=O)CSc2nc3c(oc4ccccc43)c(=O)n2CCOC)cc1 -1.07%, CCOc1ccc(CCNC(=O)CN2N=C(c3ccccc3)CCC2=O)cc1OCC 7.05%, CC(=O)c1ccc(NC(=O)CSc2nc(-c3cccc(F)c3)nc3c2c(=O)n(C)c(=O)n3C)cc1 -13.3%, CN1C(C(=O)Nc2ccc(F)cc2F)=CC(c2ccc3c(c2)OCO3)=NS1(=O)=O 1.14%, Cc1cc(C)cc(NC(=O)CN2C(=O)c3ccccc3Sc3ncccc32)c1 -9.79%, CCCCN(CC)CCCNC(=O)c1cc2c(=O)[nH]c3ccccc3c2s1 -8.78%, COc1ccc(CNC(=O)c2ccc3c(c2)nc2n3CCOC2)c(OC)c1 -17.2%, Cc1ccc(-c2cc(C(F)(F)F)c(C#N)c(SCC(=O)Nc3ccccc3)n2)cc1 2.55%, CCOc1cccc(C2c3c(-c4cc(C)ccc4O)n[nH]c3C(=O)N2Cc2ccco2)c1 (stereo not given) 2.72%, Cc1ccc(CNC(=O)c2cc3c(=O)n(Cc4cccnc4)ccc3nc2C)cc1 -5.65%, CCOC(=O)C(C)NC(=O)c1c(C)oc2ncn(CC(C)C)c(=O)c12 (stereo not given) -1.21%, CCOC(=O)C1CCN(C(=O)c2ccc3c(=O)n4nc(Nc5cc(C)ccc5C)sc4nc3c2)CC1 -6.37%, COc1ccc(OC)c(CCNC(=O)c2csc3c2CCCCC3)c1 -0.441%, CCC(=O)C1=C(c2cccc(OC)c2)N(C(=O)CC)n2c(nnc2C2CCCCC2)S1 0.476%, Cc1cccc(C)c1OCc1nc2c3c(-c4ccccc4)c(-c4ccccc4)oc3ncn2n1 -10.2%, COc1cccc(NC(=O)C2CCN(c3nn4cc(-c5ccc(F)cc5)nc4s3)CC2)c1 2.29%, Cc1ccc(NC(=O)Cn2c(=O)oc3cc(S(=O)(=O)NCc4ccccc4)ccc32)cc1 -1.12%, CCn1cc(C(=O)N2CCN(c3ccc(C(C)=O)cc3)CC2)c2cc(OC)c(OC)cc2c1=O 2.37%, Cc1cccc2c1-c1sc(C(=O)N(C)c3cccc(C(F)(F)F)c3)cc1CO2 -0.498%, Cc1csc2nc(COc3ccccc3NC(=O)c3ccc(C(C)(C)C)cc3)cc(=O)n12 12.6%, CCNC(=O)c1nn(-c2ccccc2C)nc1CO 0.189%, CC(=O)C1=C(c2ccc(C)c(C)c2)N(C(C)=O)n2c(nnc2-c2ccc(Cl)cc2)S1 -1.85%, Cc1cccc(CNC(=O)CCCn2c(=O)c3cccn3c3ccc(F)cc32)c1 0%, O=C(Cn1c(=O)n(-c2ccccc2Cl)c(=O)c2sc3ccccc3c21)NC1CCCCC1 -11.8%, N#Cc1cccc(NC(=O)C2CCN(S(=O)(=O)c3ccc4[nH]c(=O)ccc4c3)CC2)c1 0.054%, Cc1ccccc1-n1nc(CO)c(C(=O)NCc2cccs2)n1 1.89%, Cc1ccc(CN2CCN(CC(=O)Nc3ccc(C)c(C)c3)S2(=O)=O)cc1 -4.12%, Cc1c(NC(=O)c2nc3ccccc3nc2N2CCCCC2)cccc1[N+](=O)[O-] -2.67%, Cc1ccccc1OC(=O)CSc1nnc(-c2ccc(F)cc2)o1 4.1%, CCOC(=O)c1cc(C)n(CC2CCC(C(=O)Nc3ccc(C)c(F)c3)CC2)c1C (stereo not given) -6.34%, Cc1ccc(C(=O)Nc2ccc(-c3nc4ccccc4s3)cc2C)cc1C 2.95%, COC(=O)c1ccccc1NC(=O)Nc1nnc(N2CCC(C)CC2)s1 -6.14%, CCOc1cc(CNC(=O)NC2COc3ccc(OC)cc3C2)cc(OCC)c1OCC (stereo not given) -0.297%, COc1ccc(N2CC(NC(=O)CCCc3ccccc3)CC2=O)cc1 (stereo not given) 2.64%, Cc1c(Cl)cccc1NC(=O)CN(CCc1ccccc1)S(=O)(=O)c1ccccc1 18.9%, Cc1cccc(C(=O)N2CCc3cc(CNS(=O)(=O)c4ccc(Cl)s4)ccc32)c1 -19.7%, Cc1ccccc1OCC(=O)Nc1ccc(-c2nc3ncccc3o2)cc1 -1.8%
